In the supplement of paper PMC4967469:
The IC50 comes from the fitted curve, where viability falls to half of the control; a fit beyond the top or the lowest dose is shown as a bound at that dose. AUC is the area under the same curve over the 256-fold range up to the top dose, as a fraction; the more sensitive the line, the further below 1. For part of these data: A top dose marked as inferred was calculated from the reported fits. For part of these data: Drugs with an entry number were screened twice under separate entries, and the two screens often disagree.

Experiments:
Assay in all cases: Viability of human cancer cell lines after 72 h of drug (GDSC screen)
[1] = compound: NCC(=O)Nc1ccc(-n2nc(C(F)(F)F)cc2-c2ccc3c(ccc4ccccc43)c2)cc1 [OSU-03012]; conditions: top dose 16 µM; top dose inferred
Method: (§1)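 Human cancer cell lines in 384-well plates, medium with 10% serum, drug for 72 h over a 256-fold dose range (nine 2-fold or five 4-fold steps up to the top dose). Adherent lines were fixed and stained with the nucleic acid dye Syto60, suspension lines read with resazurin; signal relative to control wells, capped at 0 and 100%. One two-parameter sigmoid per drug and line, fitted in a mixed model over all curves with the slope shared within a line.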

[2] = compound: O=c1[nH]cc(F)c(=O)[nH]1 [5-Fluorouracil]; conditions: top dose 32 µM; top dose inferred
Method: as §1

[3] = compound: COc1cc(F)c(F)c(Nc2ccc(I)cc2F)c1NS(=O)(=O)C1(C[C@H](O)CO)CC1 [RDEA119]; conditions: top dose 5 µM, top dose inferred
Method: as §1

[4] = compound: CC(C)(C)c1cc(NC(=O)Nc2ccc(-c3cn4c(n3)sc3cc(OCCN5CCOCC5)ccc34)cc2)no1 [AC220]; conditions: top dose 1.024 µM; top dose inferred
Method: as §1

[5] = compound: Fc1cc(-c2ccnc(Nc3ccc(-n4cnc(N5CCOCC5)n4)cc3)n2)cc(N2CCOCC2)c1 [JNK-9L]; conditions: top dose 5.12 µM; top dose inferred
Method: as §1

[6] = compound: OC[C@H](Cc1ccccc1)Nc1nc(Oc2ccc3c(c2)CCC3)nc2c1ncn2Cc1ccc(-c2ccccc2)cc1 [QS11]; conditions: top dose 10.24 µM
Method: as §1

[7] = compound: C#Cc1cccc(Nc2ncnc3cc(OC)c(OCCCCCCC(=O)NO)cc23)c1 [CUDC-101]; conditions: top dose 5.12 µM; top dose inferred
Method: as §1

| Cell Line | AUC [1] | IC50 [1] [nM] | AUC [2] | IC50 [2] [nM] | AUC ([3]; screen: GDSC drug entry 1014) | IC50 ([3]; screen: GDSC drug entry 1014) [nM] | AUC ([3]; screen: GDSC drug entry 1526) | IC50 ([3]; screen: GDSC drug entry 1526) [nM] | AUC [4] | IC50 [4] [nM] | AUC [5] | IC50 [5] [nM] | AUC [6] | IC50 [6] [nM] | AUC [7] | IC50 [7] [nM] |
| --- | --- | --- | --- | --- | --- | --- | --- | --- | --- | --- | --- | --- | --- | --- | --- | --- |
| ES7 (Ewing sarcoma, adherent) | 0.81 | 8730 | 0.488 | 1850 | 0.982 | > 5000 | 0.967 | > 5000 | 0.865 | 944 | 0.613 | 660 | 0.866 | 9570 | 0.247 | 58.2 |
| JVM-3 (lymphoid neoplasm, suspension) | 0.869 | 15200 | 0.767 | 12100 | 0.861 | 4340 | 0.888 | > 5000 | 0.985 | > 1020 | 0.817 | 2910 | 0.987 | > 10200 | 0.513 | 347 |
| AN3-CA (endometrium, adherent) | 0.639 | 2510 | 0.978 | > 32000 |  |  | 0.903 | > 5000 | 0.984 | > 1020 | 0.49 | 299 | 0.907 | > 10200 | 0.681 | 1080 |
| RVH-421 (melanoma, adherent) | 0.834 | > 16000 | 0.776 | 17800 | 0.377 | 126 | 0.623 | 771 | 0.936 | > 1020 | 0.491 | 299 | 0.96 | > 10200 | 0.822 | 4570 |
| VM-CUB-1 (bladder, adherent) | 0.784 | 6540 | 0.971 | > 32000 | 0.828 | 2930 | 0.849 | 3570 | 0.989 | > 1020 | 0.657 | 856 | 0.973 | > 10200 | 0.603 | 606 |
| OMC-1 (cervix, adherent) | 0.714 | 4150 | 0.96 | > 32000 | 0.844 | 3810 | 0.904 | > 5000 | 0.983 | > 1020 | 0.744 | 1670 | 0.962 | > 10200 | 0.529 | 385 |
| GR-ST (lymphoblastic leukaemia, suspension) | 0.537 | 1290 | 0.814 | 22200 | 0.981 | > 5000 | 0.967 | > 5000 | 0.946 | > 1020 | 0.632 | 801 | 0.799 | 6120 | 0.449 | 225 |
| HEL (acute myeloid leukaemia, semi-adherent) | 0.591 | 1700 | 0.397 | 1100 |  |  | 0.991 | > 5000 | 0.971 | > 1020 | 0.62 | 643 | 0.773 | 3330 | 0.409 | 188 |
| 451Lu (melanoma, adherent) | 0.714 | 3900 | 0.959 | > 32000 | 0.243 | 59.1 | 0.446 | 223 | 0.989 | > 1020 | 0.457 | 245 | 0.88 | 9890 | 0.655 | 844 |
| BB65-RCC (kidney, adherent) | 0.765 | 6730 | 0.944 | > 32000 |  |  | 0.748 | 1830 | 0.983 | > 1020 | 0.65 | 893 | 0.825 | 7400 | 0.56 | 478 |
| NCI-H2122 (lung adenocarcinoma, adherent) | 0.71 | 3740 | 0.943 | > 32000 |  |  | 0.714 | 1200 | 0.987 | > 1020 | 0.482 | 286 | 0.711 | 2420 | 0.818 | 2640 |
| CAL-27 (head and neck, adherent) | 0.63 | 2300 | 0.519 | 2250 | 0.695 | 1120 | 0.517 | 348 | 0.984 | > 1020 | 0.522 | 368 | 0.907 | > 10200 | 0.39 | 159 |
| PFSK-1 (medulloblastoma, adherent) | 0.841 | 12100 | 0.893 | > 32000 | 0.977 | > 5000 |  |  | 0.984 | > 1020 | 0.638 | 788 | 0.957 | > 10200 | 0.64 | 801 |
| TE-6 (oesophagus, adherent) | 0.695 | 3910 | 0.653 | 5750 | 0.902 | > 5000 | 0.981 | > 5000 | 0.985 | > 1020 | 0.697 | 1260 | 0.963 | > 10200 | 0.885 | > 5120 |
| PA-TU-8988T (pancreas, adherent) | 0.635 | 2360 | 0.864 | 28000 |  |  | 0.709 | 1220 | 0.985 | > 1020 | 0.613 | 656 | 0.849 | 7710 | 0.741 | 1570 |
| EVSA-T (breast, adherent) | 0.901 | 15500 | 0.902 | 31400 | 0.984 | > 5000 | 0.984 | > 5000 | 0.985 | > 1020 | 0.742 | 1390 | 0.956 | > 10200 | 0.387 | 165 |
| JHU-011 (head and neck, adherent) | 0.611 | 2010 | 0.395 | 1030 | 0.534 | 386 | 0.874 | 4700 | 0.986 | > 1020 | 0.478 | 280 | 0.867 | 9000 | 0.524 | 371 |
| KINGS-1 (glioma, adherent) | 0.867 | > 16000 | 0.846 | > 32000 | 0.74 | 2010 | 0.891 | > 5000 | 0.977 | > 1020 | 0.845 | > 5120 | 0.978 | > 10200 | 0.501 | 322 |
